# Test results published in the supplement of paper PMC8728848.
# Some of the results follow.
# What was measured:
# Assay in all cases: glycan array binding signal (z-score within array); higher = stronger binding
# Conditions in all cases: glycan notation: IUPAC condensed, linker removed
# [1] = target: Gal(b1-3)GalNAc(b1-4)Gal(b1-4)Glc
# In short: (§1)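 Glycan array binding is given as a within-array Z-score, which can be read as non-binding when negative. The arrays, 3228 of them, came from the Consortium for Functional Glycomics database and were retained only where the protein sequence was available. Z-scores were averaged across arrays of the same protein sequence at different concentrations or buffers and across linkers.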
# [2] = target: Gal(b1-3)GalNAc(b1-4)[Neu5Ac(a2-3)]Gal(b1-4)Glc
# In short: as §1
# Gal(b1-3)GlcNAc = target: Gal(b1-3)GlcNAc
# In short: as §1
# [3] = target: Gal(b1-3)GlcNAc(a1-3)Gal(b1-4)GlcNAc
# In short: as §1
# [4] = target: Gal(b1-3)GlcNAc(a1-6)Gal(b1-4)GlcNAc
# In short: as §1
# Gal(b1-3)GlcNAc(b1-2)Man = target: Gal(b1-3)GlcNAc(b1-2)Man
# In short: as §1
# [5] = target: Gal(b1-3)GlcNAc(b1-2)Man(a1-3)[Gal(b1-3)GlcNAc(b1-2)Man(a1-6)]Man(b1-4)GlcNAc(b1-4)GlcNAc
# In short: as §1
# [6] = target: Gal(b1-3)GlcNAc(b1-2)Man(a1-3)[Gal(b1-3)GlcNAc(b1-2)Man(a1-6)]Man(b1-4)GlcNAc(b1-4)[Fuc(a1-6)]GlcNAc
# In short: as §1
# [7] = target: Gal(b1-3)GlcNAc(b1-2)Man(a1-3)[GlcNAc(b1-4)][Gal(b1-3)GlcNAc(b1-2)Man(a1-6)]Man(b1-4)GlcNAc(b1-4)GlcNAc
# In short: as §1
# [8] = target: Gal(b1-3)GlcNAc(b1-2)[Gal(b1-3)GlcNAc(b1-6)]Man(a1-6)[Gal(b1-3)GlcNAc(b1-2)Man(a1-3)]Man(b1-4)GlcNAc(b1-4)GlcNAc
# In short: as §1
# [9] = target: Gal(b1-3)GlcNAc(b1-3)Gal(b1-3)GlcNAc
# In short: as §1
# [10] = target: Gal(b1-3)GlcNAc(b1-3)Gal(b1-4)Glc
# In short: as §1
# [11] = target: Gal(b1-3)GlcNAc(b1-3)Gal(b1-4)GlcNAc
# In short: as §1
# [12] = target: Gal(b1-3)GlcNAc(b1-3)Gal(b1-4)GlcNAc(b1-2)Man(a1-3)[Gal(b1-3)GlcNAc(b1-3)Gal(b1-4)GlcNAc(b1-2)Man(a1-6)]Man(b1-4)GlcNAc(b1-4)GlcNAc
# In short: as §1
# [13] = target: Gal(b1-3)GlcNAc(b1-3)Gal(b1-4)GlcNAc(b1-2)[Gal(b1-3)GlcNAc(b1-3)Gal(b1-4)GlcNAc(b1-6)]Man(a1-6)[Gal(b1-3)GlcNAc(b1-3)Gal(b1-4)GlcNAc(b1-2)Man(a1-3)]Man(b1-4)GlcNAc(b1-4)[Fuc(a1-6)]GlcNAc
# In short: as §1
# [14] = target: Gal(b1-3)GlcNAc(b1-3)Gal(b1-4)GlcNAc(b1-3)Gal(b1-4)GlcNAc(b1-2)[Gal(b1-3)GlcNAc(b1-3)Gal(b1-4)GlcNAc(b1-3)Gal(b1-4)GlcNAc(b1-6)]Man(a1-6)[Gal(b1-3)GlcNAc(b1-3)Gal(b1-4)GlcNAc(b1-3)Gal(b1-4)GlcNAc(b1-2)Man(a1-3)]Man(b1-4)GlcNAc(b1-4)[Fuc(a1-6)]GlcNAc
# In short: as §1
# [15] = target: Gal(b1-3)GlcNAc(b1-3)Gal(b1-4)GlcNAc(b1-6)[Gal(b1-3)GlcNAc(b1-3)]Gal(b1-4)Glc
# In short: as §1
# [16] = target: Gal(b1-3)GlcNAc(b1-3)Gal(b1-4)[Fuc(a1-3)]GlcNAc
# In short: as §1
# [17] = target: Gal(b1-3)GlcNAc(b1-3)Gal(b1-4)[Fuc(a1-3)]GlcNAc(b1-6)[Gal(b1-3)GlcNAc(b1-3)]Gal(b1-4)Glc
# In short: as §1
# [18] = target: Gal(b1-3)GlcNAc(b1-3)GalNAc
# In short: as §1
# [19] = target: Gal(b1-3)GlcNAc(b1-6)Gal(b1-4)GlcNAc
# In short: as §1
# [20] = target: Gal(b1-3)GlcNAc(b1-6)GalNAc
# In short: as §1
# [21] = target: Gal(b1-3)GlcNAc(b1-6)[Gal(b1-3)]GalNAc
# In short: as §1
# Gal(b1-3)GlcNAc6S = target: Gal(b1-3)GlcNAc6S
# In short: as §1
# [22] = target: Gal(b1-3)[Fuc(a1-4)]GlcNAc
# In short: as §1
# [23] = target: Gal(b1-3)[Fuc(a1-4)]GlcNAc(b1-2)Man
# In short: as §1
# [24] = target: Gal(b1-3)[Fuc(a1-4)]GlcNAc(b1-2)Man(a1-3)[Gal(b1-3)[Fuc(a1-4)]GlcNAc(b1-2)Man(a1-6)]Man(b1-4)GlcNAc(b1-4)[Fuc(a1-6)]GlcNAc
# In short: as §1
# [25] = target: Gal(b1-3)[Fuc(a1-4)]GlcNAc(b1-3)Gal(b1-3)[Fuc(a1-4)]GlcNAc
# In short: as §1
# [26] = target: Gal(b1-3)[Fuc(a1-4)]GlcNAc(b1-3)Gal(b1-4)[Fuc(a1-3)]GlcNAc
# In short: as §1
# [27] = target: Gal(b1-3)[Fuc(a1-4)]GlcNAc(b1-6)GalNAc
# In short: as §1
# [28] = target: Gal(b1-3)[GlcNAc(b1-6)]GalNAc
# In short: as §1
# [29] = target: Gal(b1-3)[Neu5Ac(a2-6)]GalNAc
# In short: as §1
# [30] = target: Gal(b1-3)[Neu5Ac(a2-6)]GlcNAc(b1-4)Gal(b1-4)Glc
# In short: as §1
# [31] = target: Gal(b1-3)[Neu5Ac(b2-6)]GalNAc
# In short: as §1
# Gal(b1-4)Gal = target: Gal(b1-4)Gal
# In short: as §1
# [32] = target: Gal(b1-4)GalNAc(a1-3)[Fuc(a1-2)]Gal(b1-4)GlcNAc
# In short: as §1
# [33] = target: Gal(b1-4)GalNAc(b1-3)[Fuc(a1-2)]Gal(b1-4)GlcNAc
# In short: as §1
# Gal(b1-4)Glc = target: Gal(b1-4)Glc
# In short: as §1
binder,measurement,setting,value
ACA (Amaranthus caudatus) (protein) MAGLPVIMCLKSNNNQKYLRYQSDNIQQYGLLQFSADKILDPLAQFEVEPSKTYDGLVHIKSRYTNKYLVRWSPNHYWITASANEPDENKSNWACTLFKPLYVEEGNMKKVRLLHVQLGHYTQNYTVGGSFVSYLFAESSQIDTGSKDVFHVIDWKSIFQFPKRYVTFKGNNGKYLGVITINQLPCLQFGYDNLNDPKVAHEMFVTSNGTICIKSTYMNKFWRLSTDDWILVDGNDPRETNEAAALFRSDVHDFNVISLLNMQKTWFIKRFTSGKPGFINCMNAATQNVDETAILEIIELGSNN,glycan array binding signal (z-score),[1],0.073
same,glycan array binding signal (z-score),[2],-0.454
same,glycan array binding signal (z-score),Gal(b1-3)GlcNAc,-0.151
same,glycan array binding signal (z-score),[3],-0.572
same,glycan array binding signal (z-score),[4],-0.451
same,glycan array binding signal (z-score),Gal(b1-3)GlcNAc(b1-2)Man,0.032
same,glycan array binding signal (z-score),[5],0.867
same,glycan array binding signal (z-score),[6],0.116
same,glycan array binding signal (z-score),[7],2.44
same,glycan array binding signal (z-score),[8],-0.184
same,glycan array binding signal (z-score),[9],-0.267
same,glycan array binding signal (z-score),[10],-0.586
same,glycan array binding signal (z-score),[11],-0.338
same,glycan array binding signal (z-score),[12],-0.297
same,glycan array binding signal (z-score),[13],0.911
same,glycan array binding signal (z-score),[14],0.633
same,glycan array binding signal (z-score),[15],-0.113
same,glycan array binding signal (z-score),[16],0.124
same,glycan array binding signal (z-score),[17],-0.12
same,glycan array binding signal (z-score),[18],0.052
same,glycan array binding signal (z-score),[19],-0.237
same,glycan array binding signal (z-score),[20],-0.497
same,glycan array binding signal (z-score),[21],-0.617
same,glycan array binding signal (z-score),Gal(b1-3)GlcNAc6S,-0.01
same,glycan array binding signal (z-score),[22],-0.179
same,glycan array binding signal (z-score),[23],0.403
same,glycan array binding signal (z-score),[24],0.988
same,glycan array binding signal (z-score),[25],-0.545
same,glycan array binding signal (z-score),[26],-0.36
same,glycan array binding signal (z-score),[27],0.358
same,glycan array binding signal (z-score),[28],-0.435
same,glycan array binding signal (z-score),[29],-0.195
same,glycan array binding signal (z-score),[30],-0.457
same,glycan array binding signal (z-score),[31],-0.173
same,glycan array binding signal (z-score),Gal(b1-4)Gal,-0.685
same,glycan array binding signal (z-score),[32],-0.471
same,glycan array binding signal (z-score),[33],-0.595
same,glycan array binding signal (z-score),Gal(b1-4)Glc,-0.035
